Experimental data from PubChem BioAssay AID434955 (Southern Research Specialized Biocontainment Screening …, 2010).
The list shows a part of the results. The main result of the screen is listed elsewhere. These columns were measured beside it and carry no call. Compounds called inactive in the main read-out are mostly missing here. Residues, ends and D or L forms follow the SMILES beside them. *: point of attachment. Cbz = O=C(OCc1ccccc1)*; Boc = CC(C)(C)OC(=O)*

Test: beta-lactam sensitization of Mtb H37Rv, H37Rv (AID 434955);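 note: growth measured after seven days incubation then overnight dye step; 0% = bacteria only wells and 100% = bacteria with antibiotic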
Conditions: M. tuberculosis H37Rv growth with meropenem, percent inhibition; measured here: primary screen without meropenem; at 25 µM

SMILES | inhibition [%]
O=C(O)CN1C(=O)C2(OCCCO2)c2ccccc21 | -1.29
CSc1ccc(C(=O)C2CCCN(C(=O)CCc3cnn(C)c3)C2)cc1 (centres undefined) | -11.1
CCc1ccc(OCC2c3cc(OC)c(OC)cc3CCN2C(C)=O)cc1 (centres undefined) | 10.2
CCn1cc(CN2CCC(n3nccc3NC(=O)c3ccccc3C)CC2)cn1 | -14.3
CC1(C)S[C@@H]2[C@H](NC(=O)Cc3ccccc3)C(=O)N2[C@H]1C(=O)O | -10.3
CCC(=O)Nc1ccc(-c2ccc(N3CCN(C)CC3)nn2)cc1 | -1.82
Cc1cccc(C)c1OCc1cc(C(=O)N2CCCCCCC2)no1 | 9.17
O=c1cc(C(F)(F)F)nc(SC/C=C/c2ccccc2)[nH]1 | -4.55
c1csc(-c2csc3nc(CN4CCOCC4)nc(NCc4ccc5c(c4)OCO5)c23)c1 | 84.7
COc1ccc(/C=C2\N=C(SC)N(c3ccccc3OC)C2=O)cc1 | 41.2
COc1ccc(S(=O)(=O)N2CCSC2c2ccccc2)cc1 (centres undefined) | 9
O=C(NCc1ccco1)c1ccc2c(c1)N(Cc1ccccc1)C(=O)CS2=O (centres undefined) | -3.55
N=c1n(CC(=O)c2ccc(Br)cc2)c2ccccc2n1Cc1ccccc1 | 85.9
CCOC(=O)c1c(NC(=O)CCS(=O)(=O)c2ccccc2)sc2c1CCN(C)C2 | -7.11
CCCn1nc(NC(=O)CC(C)C)c2cc3ccccc3nc21 | 13.6
COc1ccc(C(=O)Oc2ccc3oc(=O)sc3c2)cc1 | 46.1
Cc1cc(OCC(=O)N2CCN(c3ccccn3)CC2)cc(C)c1Br | 9.21
S=c1nc(-c2ccccc2)n(CCN2CCOCC2)c2c1CCCC2 | -6.8
O=C(C1CCN(S(=O)(=O)c2ccccc2)CC1)N1CCN(Cc2ccc3c(c2)OCO3)CC1 | -3.36
CCCC(C)C(=O)Nc1cccc(NC(C)=O)c1 (centres undefined) | -0.28
O=C1c2cc(F)ccc2-n2c1nc1ccccc1c2=O | 99.1
COc1cc(C(=O)NCCC(=O)NCCc2ccc(Cl)cc2)cc(OC)c1OC | 6.19

SMILES | inhibition [%]
COc1cc(SC)ccc1C(=O)Nc1ccc(C)cc1C | -1.09
Nc1c(C(=O)N2CCCC2)sc2nc3c(cc12)CCCCCC3 | 16.2
O=C(CSc1nc2ncccc2[nH]1)NCc1ccco1 | -2.83
COc1nc(-c2ccccc2)ccc1-c1noc(-c2cccs2)n1 | -4.23
Cc1ccnn1CC(=O)N/N=C/c1ccc([N+](=O)[O-])s1 | 5.48
CCCCc1nc2cc(C(=O)N3CCCCC3CC(=O)OCC)ccc2o1 (centres undefined) | -1.4
C#CCSc1nnc(-c2sc3ccccc3c2Cl)o1 | 21.4
COc1cc(OC)c(OC)cc1/C=C1\CCC(C2CCCC2)C1=O (centres undefined) | 0.78
CC(C)(C)OC(=O)NCCCC[C@H](NC(=O)[C@H](Cc1c[nH]c2ccccc12)NC(=O)OCc1ccccc1)C(=O)O (Cbz-Trp-Lys(Boc)-OH) | 7.99
O=c1[nH]cc(COCc2ccccc2)c(=O)[nH]1 | -0.49
O=C(NCCc1ccccc1)/C(=C\c1ccc([N+](=O)[O-])cc1)NC(=O)c1ccc(Br)cc1 | -6.49
CCOc1ccc(N2C(=O)CC(N)C2=O)cc1 (centres undefined) | 11.5
COc1ccc(CC2=C(O)c3ccccc3C(=O)C2=O)cc1 | 13.4
CCOC(=O)/C=c1\s/c(=C\c2c(OC)ccc3ccccc23)c(=O)n1CC(=O)NCC1CCCO1 (centres undefined) | 17
O=C(CCNS(=O)(=O)c1ccccc1)N1CCN(c2ccccc2)CC1 | 2.87
Cn1c(NCc2ccccc2)nc2c1c(=O)n(Cc1ccc(Br)cc1)c(=O)n2C | 49.5
O=C1C=C(c2ccccc2)OC2(CCCC2)O1 | -9.26
COC(=O)C1=C(c2cccc(OCc3ccccc3)c2)C[C@@H]2CC[C@H]1N2C(=O)NC1CCN(Cc2ccccc2)CC1 | 98
O=C(c1ccc2oc(Cc3ccc(Cl)cc3)nc2c1)N1CCCCC1CCO (centres undefined) | 18.6
Cc1ccc(NC(=O)c2oc3ccccc3c2NC(=O)C2CC2)cc1 | 0.67
O=C1OC(/C=C/c2ccc(Cl)cc2Cl)=NC/1=C\c1cccs1 | 52.4
CCOc1ccccc1CNC(=O)c1cc2oc3ccccc3c2n1C | -0.02

SMILES | inhibition [%]
CN(CC1COCCO1)C(=O)c1cc(COc2c(F)cccc2F)on1 (centres undefined) | -1.95
Cc1ccc(OCCn2cc(/C=C3\C(=O)NN(c4ccccc4)C3=O)c3ccccc32)cc1 | 39.1
CCOC(=O)c1ccc(NC(=O)Cn2cc3c(n2)CCC(C)C3)cc1 (centres undefined) | -7.99
CCc1ccc(OCCNC(=O)c2ccco2)cc1 | 2.69
C[C@]12CCC(=O)CC1CCC1C2CC[C@]2(C)C(OC(=O)CCC(=O)O)CCC12 (some centres undefined) | 1.54
Cc1ccc(-n2nc3c(c2NC(=O)C(C)(C)C)CS(=O)(=O)C3)cc1 | 6.1
COc1cccc(C(=O)O/N=C(\N)c2ccncc2)c1 | 0.75
CCCSc1nnc(NC(=O)c2sc3nc(-c4cccs4)ccc3c2N)s1 | 5.61
O=C(NC(=S)N1CCCC1)c1ccccc1 | 2.73
Cc1c(C(=O)N2CCN(c3ccc(F)cc3)CC2)oc2c1C(=O)CCC2 | 8.42
N#C/C(=C\c1cn[nH]c1-c1ccc(Cl)cc1)C(=O)NC1CC1 | -3.37
Cc1cc(N2CCN(c3ccccc3)CC2)nc2ccccc12 | 43.6
Cc1c(NC(=O)c2cc(-c3ccco3)on2)c(=O)n(-c2ccccc2)n1C | 0.86
COc1ccc(CCN(C)C2CCCN(C(=O)Cn3cnnn3)C2)cc1OC (centres undefined) | -0.14
CSCc1ccc(C(=O)N2CCC(N3CCC(C(=O)NC(C)C)CC3)CC2)o1 | -4.49
CSc1ccccc1OCc1cc(C(=O)NC2CCOC(C)(C)C2)no1 (centres undefined) | -9.04
c1ccc(-c2noc(-c3cccc4ccccc34)n2)cc1 | 35.3
OC(COc1ccc2cc(Br)ccc2c1)CN1CCCC1 (centres undefined) | 1.04
COC(=O)C1C(=O)NC(SC)=C(C#N)C1c1ccccc1F (centres undefined) | -2.32
CCN1c2ccccc2-c2nc3ccccc3n2C1c1cccs1 (centres undefined) | 1.61
CC(=O)N(CN1C(=O)c2ccccc2C1=O)c1ccc2c(c1)oc1ccccc12 | -1.54
Cc1ccc(C(=O)C2=C(O)C(=O)N(Cc3cccnc3)C2c2ccc(Br)cc2)o1 (centres undefined) | -4.93

SMILES | inhibition [%]
COC(=O)c1c(NC(=O)c2ccc(C)cc2)csc1C | 32.1
O=C(N[C@H]1CCC(=O)N(CCSc2ccc(Br)cc2)CC1)OCc1ccccc1 | 97.6
O=C1CN(C(=S)NC(=O)c2ccc(-c3ccccc3)cc2)CCN1 | 8.28
Cc1cc(NC(=O)CSc2nnc(CNC(=O)c3ccc(C(C)(C)C)cc3)o2)no1 | 5.55
Cc1ccc(-c2[nH][nH]c(=O)c(=O)c2N=Nc2ccccc2)cc1 | 33.9
CCOc1ccc2[nH]c(C)cc(=O)c2c1 | -4.26
Nc1c(C(=O)NCCc2ccccc2)nnn1Cc1ccccc1 | 3.23
O=C(NCCN1CCOCC1)c1ccc(CS(=O)(=O)c2ccc(Br)cc2)o1 | -8.72
O=C(Nc1nc2cc3c(cc2s1)OCCO3)c1ccco1 | 14.9
CCOC(=O)c1cccc(NC(=O)CCn2nc(C)c(S(=O)(=O)N3CCCCC3)c2C)c1 | -3.58
Cc1ccc(C(=O)COC(=O)C(C)N2C(=O)C3C4CCC(C4)C3C2=O)cc1C (centres undefined) | 2.14
CC(=O)NC(c1cc(Cl)c2cccnc2c1O)C1CC1 (centres undefined) | 83.8
COc1cccc(C(=O)N2CCC(n3nccc3NC(=O)C(OC)c3ccccc3)CC2)c1 (centres undefined) | -3.2
COc1ccc(C(=O)NCC(=O)NCC(=O)OCC(=O)c2ccc(C)cc2)cc1 | -10.3
Cn1cc([N+](=O)[O-])c(C(=O)Nc2sc3c(c2C#N)CCC3)n1 | -0.23
C=CCOc1cccc(/C=N/NC(=O)CC(=O)NC2CCCCC2)c1 | -8.12
O=C(CCSc1ccc(Cl)c(Cl)c1)NC12CC3CC(CC(C3)C1)C2 | 41
CCC(C)NC(=O)CC1Oc2ccc(C)cc2NC1=O (centres undefined) | -0.55
COc1ccc2c(C)nc(Nc3nc(-c4ccccc4)cc(=O)[nH]3)nc2c1 | 24.2
N#CC1=C2C=Cc3ccccc3N2CCCC1=O | 16.2
COC(=O)c1ccccc1NC(=O)Cn1c(-c2nonc2N)nc2ccccc21 | -9.37
c1ccc(-c2n[nH]c3c2CCC3)cc1 | 49.1

SMILES | inhibition [%]
Cc1cccc(C)c1OCC(=O)NNC(=O)CNC(=O)c1ccc(OC(F)F)cc1 | 65.1
C=CCNc1nc2ccccc2nc1NS(=O)(=O)c1ccc(F)cc1 | -0.58
COc1cccc(C2C(C(=O)c3ccc(C)o3)=C(O)C(=O)N2CCN2CCOCC2)c1OC (centres undefined) | 0.43
COc1cc(NC(=O)CN(C)S(=O)(=O)c2cccs2)cc(OC)c1 | 0.41
Cc1ccccc1N1CCN(CCN2C(=O)CC(=C3c4ccccc4-c4ccccc43)C2=O)CC1 | -2.78
COC(=O)c1ccc(-c2nc(CN3CCC(C(=O)N4CCOCC4)CC3)c(C)o2)cc1 | -1
O=C(NCC1CCCO1)C(=O)N/N=C/c1cccc(Cl)c1 (centres undefined) | -5.69
O=C(CSc1ncn[nH]1)Nc1cccc2ccccc12 | 16.9
COc1ccc(Nc2ncnc3sc(C)cc23)cc1 | 6.34
CCOC(=O)N1CCC(Nc2c(NCCCN3CCN(CC)CC3)c(=O)c2=O)CC1 | -2.47
COC(=O)Cn1cnc2c(oc3ccccc32)c1=O | 4.41
COc1cccc(S(=O)(=O)N2CCN(Cc3ccc4c(c3)OCO4)CC2)c1 | -2.07
Cc1cccc(OCc2nc(-c3ccccn3)n[nH]2)c1 | 15.2
COc1ccc(-c2sc3cc4c(cc3c2C#CC2(O)CCCCC2)OCO4)cc1 | 91.9
CC(C)N1CC23C=CC(O2)C(C(=O)OCc2ccccc2)C3C1=O (centres undefined) | 0.67
Cc1cc(NC(=O)C(C)SCC(=O)OCc2c(Cl)cccc2Cl)no1 (centres undefined) | 2.46
Cc1ccc(NC(=O)CN2C(=O)S/C(=C/c3ccncc3)C2=O)cc1 | -5.55
CCOC(=O)CNC(=O)c1cccnc1Oc1ccc(Cl)cc1 | 42.7
COc1ccc(C(=O)NCC(=O)OCCCOC(=O)CNC(=O)c2ccc(OC)c(OC)c2)cc1OC | 4.89
CCCNc1c(NC(=O)c2cccs2)c(=O)oc2ccccc12 | -1.08
O=C(CCc1ccccc1)NC(=S)Nc1ccccc1[N+](=O)[O-] | 4.39
